Paper PMC4336329 (PLoS ONE, 2015)
The campaign covered roughly 310,000 compounds. About 2,200 (0.71%) showed an effect of 50% or more. Effects have a minus sign here. This is one part of the list.

Biological target: human ether-à-go-go-related gene (hERG) potassium channel (human, UniProt Q12809)
Test: primary screen, population patch clamp on CHO cells stably expressing hERG

human ether-à-go-go-related gene (hERG) potassium channel, sequence (Q12809 whole entry, looked up): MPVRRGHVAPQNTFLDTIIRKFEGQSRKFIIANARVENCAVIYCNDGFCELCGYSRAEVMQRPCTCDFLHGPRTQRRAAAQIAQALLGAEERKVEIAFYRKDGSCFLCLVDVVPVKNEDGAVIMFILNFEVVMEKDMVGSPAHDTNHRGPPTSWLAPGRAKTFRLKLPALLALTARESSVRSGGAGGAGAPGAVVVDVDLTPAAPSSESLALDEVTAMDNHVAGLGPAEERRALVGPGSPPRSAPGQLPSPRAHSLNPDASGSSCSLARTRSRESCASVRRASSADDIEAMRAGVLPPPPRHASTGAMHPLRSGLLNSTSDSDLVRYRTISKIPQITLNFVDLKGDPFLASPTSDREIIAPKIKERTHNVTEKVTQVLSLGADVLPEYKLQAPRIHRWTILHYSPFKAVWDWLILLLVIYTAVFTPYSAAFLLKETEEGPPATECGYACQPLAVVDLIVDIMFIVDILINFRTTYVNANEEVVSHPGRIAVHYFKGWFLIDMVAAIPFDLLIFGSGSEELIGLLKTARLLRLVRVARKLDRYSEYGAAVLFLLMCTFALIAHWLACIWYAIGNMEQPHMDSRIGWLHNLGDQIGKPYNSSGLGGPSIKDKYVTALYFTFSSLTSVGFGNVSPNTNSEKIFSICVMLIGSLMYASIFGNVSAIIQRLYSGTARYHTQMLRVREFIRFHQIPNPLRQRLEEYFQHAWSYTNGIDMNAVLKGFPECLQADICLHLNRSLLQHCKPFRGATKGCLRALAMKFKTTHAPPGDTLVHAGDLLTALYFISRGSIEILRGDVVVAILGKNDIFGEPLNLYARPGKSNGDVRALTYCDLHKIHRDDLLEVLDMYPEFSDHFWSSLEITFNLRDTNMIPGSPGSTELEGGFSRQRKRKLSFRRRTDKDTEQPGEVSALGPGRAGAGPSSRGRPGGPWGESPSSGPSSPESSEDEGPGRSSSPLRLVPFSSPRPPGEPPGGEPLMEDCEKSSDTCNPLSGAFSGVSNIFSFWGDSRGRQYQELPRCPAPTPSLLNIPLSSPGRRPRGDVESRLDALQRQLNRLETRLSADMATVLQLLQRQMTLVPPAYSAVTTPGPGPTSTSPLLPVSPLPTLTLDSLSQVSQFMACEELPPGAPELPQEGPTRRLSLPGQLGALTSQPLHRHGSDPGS

Row | SMILES | hERG current change (%, negative = inhibition) at 1uM [%]
1 | Cc1ccc2cc(CN(Cc3cccs3)C(=O)c3ccco3)c3nnnn3c2c1C | 6.65
2 | COc1cc2c(cc1OC)C(C)N(CCc1ccc(Cl)cc1)CC2.O=C(O)/C=C\C(=O)O (centres unmarked) | -39.9
3 | COCCCC1CCN(C(=O)C2CCC(=O)N(CCc3ccccc3)C2)CC1 (centres unmarked) | -8.93
4 | Cc1ccc2nc(-c3ccc(-c4cccc(Cl)c4)cc3)c(NCc3ccccc3)n2c1.O=C(O)C(F)(F)F | 5.81
5 | Cc1ccc(-n2ncc(C#N)c2/N=C/N2CCN(C)CC2)cc1 | 7.11
6 | CCC(=O)OC1(C)C(=O)C=C2C=C(CCCC(=O)OC)OC=C2C1=O (centres unmarked) | 5.9
7 | COc1cc(CN2CCCC(C(=O)c3sccc3C)C2)cc(Cl)c1O (centres unmarked) | 5.65
8 | COc1ccc(S(=O)(=O)N2CCCC2CNC(=O)C(=O)NCc2ccco2)cc1 (centres unmarked) | 10.7
9 | COC(=O)[C@@]1(Cc2ccc(F)cc2)[C@H]2c3cc(C(=O)N(C)C)n(Cc4ccccn4)c3C[C@H]2CN1C(=O)c1ccccc1 | 9.55
10 | CCc1ccccc1NC(=O)CNC(=O)c1cc(C2CC2)nn1-c1ccccc1 | 4.19
11 | O=C(Nc1cccc(F)c1)NC1CCCCC1 | 13.7
12 | CCOC(=O)c1[nH]c(C)c(C(=O)OCC(=O)NC(=O)NC(C)(C)C)c1C | 19.7
13 | Cc1ccc(Cl)cc1N1CCN(CC(O)COC(C)C)CC1.Cl (centres unmarked) | -44.6
14 | CC(C)Cc1cc(C(C)(C)C)ccc1OC(=S)N(C)C | 15.1
15 | CCCCc1c(O)nc2sccn2c1=O | 5.53
16 | CN(C(=O)C1CCOC1)c1nnc(-c2ccccn2)s1 (centres unmarked) | 1.86
17 | C=CCNCCCCOc1ccccc1.O=C(O)C(=O)O | 5.06
18 | O=P1(NCCCl)OCCCN1CCCl (centres unmarked) | 8.75
19 | CN1CCN(Cc2cn(C)nc2-c2ccccc2F)CC1c1ccccc1 (centres unmarked) | 12.6
20 | CC(C(=O)NCCc1ccc(F)cc1)N1CCN(Cc2ccccc2)CC1 (centres unmarked) | 5.75
21 | O=[N+]([O-])c1ccc2[nH]c3c(c2c1)CCCC3O (centres unmarked) | 20.1
22 | COc1ccc(CNC(=O)COC(=O)c2ccc3c(c2)OCCO3)cc1 | 17.1
23 | O=C(Nc1cccc2c1CCCC2)c1ccco1 | 7.18

Row | SMILES | hERG current change (%, negative = inhibition) at 1uM [%]
24 | N#Cc1ccc(C2=NC(C(F)(F)F)(C(F)(F)F)c3c(n(Cc4ccco4)c(=O)[nH]c3=O)N2)cc1 | 5.53
25 | Cn1[nH]c(-c2ccccc2)c(/C=N/O)c1=O | 13.3
26 | O=C(NCCN1CCOCC1)C1CCC(=O)N1Cc1ccccc1Cl (centres unmarked) | 4.73
27 | C[n+]1c(-c2ccccc2)cc(CCCCc2cc(-c3ccccc3)[n+](C)c(-c3ccccc3)c2)cc1-c1ccccc1.[O-][Cl+3]([O-])([O-])[O-] | 9.12
28 | CCOC(=O)N[C@H](Cc1c[nH]c2ccccc12)C(=O)NC1CC1 | 15.5
29 | CCOc1ccccc1C(=O)Nc1ccc2c(c1)C(=O)NC2=O | 20.9
30 | CN(CC(=O)Nc1ccccc1Br)c1ncnc2sccc12 | 16.4
31 | Cc1nc(SCC(=O)Nc2cc(S(=O)(=O)N3CCOCC3)ccc2Cl)nc(C)c1C | -20.3
32 | CC(=O)NC(CC(=O)OCC(=O)N1CCN(S(=O)(=O)c2ccc(Cl)cc2)CC1)c1ccccc1 (centres unmarked) | 8.82
33 | CCOC(=O)c1c(C)[nH]c(C)c1C(=O)COC(=O)c1cccc(C)c1O | 6.31
34 | CC(C)(O)c1[nH]c2cc(F)ccc2c1C(C)(C)O | 5.5
35 | O=S(=O)(c1ccccc1)c1nc(-c2ccco2)oc1NCc1cccnc1 | 8.49
36 | COc1cccc(N2CCN(C3CC(=O)N(c4ccc(F)c(Cl)c4)C3=O)CC2)c1 (centres unmarked) | 5.76
37 | Cc1ccccc1OCC(=O)OCC(=O)NCc1ccccc1 | 10.3
38 | O=C(C1CC(c2ccccc2O)=NO1)N1CCCCC1 (centres unmarked) | 13.1
39 | Cc1ccc(NC(=O)CN2C(=O)C3CC=CCC3C2=O)cc1S(=O)(=O)N1CCOCC1 (centres unmarked) | 9.81
40 | CCn1cc(CNC(=O)c2cc(COc3ccc(F)cc3Cl)on2)cn1 | -2.63
41 | O=C(/C=C/N1CCOCC1)c1coc2ccccc12 | 5.07
42 | COc1cc(C2SCC(=O)N2Cc2ccccc2)ccc1O (centres unmarked) | 11.9
43 | COc1ccc(CCNC(=O)Cn2cccc2C(=O)c2ccccc2C)cc1OC | -8.44
44 | Cc1c(O)nc(SC2CC(=O)N(c3cc(Cl)cc(Cl)c3)C2=O)[nH]c1=O (centres unmarked) | 16.5
45 | COc1ccc(NC(=O)C2CCCN(S(=O)(=O)c3ccc4[nH]c(=O)ccc4c3)C2)cc1OC (centres unmarked) | 19.6
46 | Cc1ccc(C(=O)Nn2cnnc2)cc1 | 11

Row | SMILES | hERG current change (%, negative = inhibition) at 1uM [%]
47 | CCOc1ccc(/C=N/N2C(C)CCCC2C)cc1OC (centres unmarked) | 10.2
48 | CCc1ccc(CN(C)CC(=O)Nc2sccc2C#N)cc1 | 1.93
49 | Cc1ccc(-c2nc(CS(=O)CC(=O)N3CCC4(CC3)OCCO4)c(C)o2)cc1 (centres unmarked) | -3.05
50 | O=C(C1CCC(CNS(=O)(=O)c2ccccc2)CC1)N1CCCCC1 (centres unmarked) | 8.49
51 | O=C1CCCC/C1=C/NCc1ccccc1 | 14.5
52 | CN(c1c[nH]c(=O)[nH]c1=O)C1CCCCC1 | 23.7
53 | CNS(=O)(=O)c1ccc(NC(=O)c2cncc(Br)c2)cc1 | 8.93
54 | O=C(COC(=O)c1ccc(Br)o1)NCc1cccs1 | 4.96
55 | CCC1(c2ccc(F)cc2)NC(=O)N(CC(=O)NCc2ccc(F)cc2)C1=O (centres unmarked) | -4.62
56 | CCOc1ccc(C(=O)OCCN(CC)CC)cc1.Cl | -13.5
57 | Cc1ccc(-c2nnn(CC(=O)N(CCO)C(C(=O)NC3CCCCC3)c3ccncc3)n2)o1 (centres unmarked) | 15
58 | O=C(CN1C(=O)/C(=C2\SC(=S)N(CCS(=O)(=O)O)C2=O)c2ccccc21)Nc1cccc(Br)c1 | -52.8
59 | CS(=O)(=O)N1CCN(C(=O)CCC2CCCC2)CC1 | 14.9
60 | c1ccc(-c2nc(-c3ccco3)n3ccccc23)cc1 | 12.2
61 | NC(=O)CC(NC(=O)c1ccc(Br)cc1)c1ccc(NCc2ccc(F)cc2)c([N+](=O)[O-])c1 (centres unmarked) | 0.593
62 | COCC(=O)NCCc1nc2ccccc2[nH]1 | 6.4
63 | O=C(Nc1ccc(N2CCOCC2)c(Cl)c1)c1ccc(S(=O)(=O)N2CCOCC2)cc1 | 4.6
64 | COC(=O)c1ccc(NC(=O)Nc2ccccc2F)cc1 | 11.7
65 | O=[N+]([O-])c1cccc(N/N=C/c2cccc(O)c2O)c1 | 9.3
66 | C=CCNC(=O)CC1Nc2c3ccccc3nc(=S)n2C1=O (centres unmarked) | 11.7
67 | CC(C)(C)OC(=O)NNC(=O)c1cccs1 | 9.97
68 | Fc1ccc(NC(=S)N2CCN(c3cccc(C(F)(F)F)c3)CC2)cc1 | 13.8
69 | COc1ccccc1N1CCN(C(=O)c2sc3nc(C)nc(N4CCN(c5ccccn5)CC4)c3c2C)CC1 | 5.06

Row | SMILES | hERG current change (%, negative = inhibition) at 1uM [%]
70 | CCOC(=O)Cc1nc(-c2ccc(Cl)cc2)n[nH]1 | 14.3
71 | Cc1cc(C)nc(SCC(=O)Nc2nonc2N)n1 | 20.3
72 | O=C1/C(=C\c2ccc(Br)cc2)SC(=S)N1NS(=O)(=O)c1ccccc1 | 15.8
73 | COc1ccc(CC(=O)N(C)C2CCCN(Cc3ccccc3F)C2)cc1OC (centres unmarked) | 9.59
74 | CC(C)(C)c1ccc2c(c1)OC(C(=O)N/N=C\c1ccc(-c3cccc(C(=O)O)c3)o1)CO2 (centres unmarked) | 10.4
75 | CC1(C)CC(=O)C(C2C3=C(CC(C)(C)CC3=O)Oc3ccccc32)=C(O)C1 (centres unmarked) | 12.1
76 | COc1cc(SC)ccc1C(=O)Nc1ccc2c(c1)OCCO2 | -7.3
77 | CN(Cc1cccs1)C(=O)c1cccc(S(=O)(=O)N2CCCCCC2)c1 | -9.79
78 | COc1cccc(CN(C(=O)c2cccc(OC)c2)C2CCS(=O)(=O)C2)c1 (centres unmarked) | 2.78
79 | Cc1cc(C)nc(NS(=O)(=O)c2ccc(NC(=O)COc3ccccc3F)cc2)n1 | 2.47
80 | Nc1nsnc1C(=O)NCCO | 18.3
81 | CCOC(=O)c1ccc(S(=O)(=O)N2CCN(C(C)=O)CC2)cc1 | -4.77
82 | N#Cc1ccc(C2N=C(c3ccccc3)NO2)cc1 (centres unmarked) | 5.42
83 | CCCCCOC(=O)C1=C(C)NC(=O)NC1c1ccc([N+](=O)[O-])cc1 (centres unmarked) | 19.1
84 | CN(CC(=O)Nc1ccccc1Br)C(=O)CCc1nc2ccccc2c(=O)[nH]1 | 1.47
85 | N#CCCCSc1ncccc1-c1nc2ccccc2[nH]1 | -3.28
86 | Cc1ccc(C(=O)O/N=C(\N)Cc2ccc([N+](=O)[O-])cc2)c(Cl)c1 | 3.35
87 | CN(C)c1ccc2c(c1)OC(N)=C(C#N)C2c1cccc(F)c1 (centres unmarked) | 15.1
88 | COc1ccc(N/N=C(/Oc2ccc([N+](=O)[O-])cc2)C(C)=O)cc1 | -8.95
89 | COc1cccc(CNC(=O)c2cccc(NC(=O)CC3SC(N4CCCCC4)=NC3=O)c2)c1 (centres unmarked) | 17.1
